Source: paper PMC4719083, “Myosin IXa Binds AMPAR and Regulates Synaptic Structure, LTP, and Cognitive Function” (Frontiers in Molecular Neuroscience, 2016)
These are yes or no findings as the source states them, for the method shown. In cells and extracts the contact can be indirect. Some entries that bind do so weakly or less than the wild type. Sequences can lack the tags named with a protein.

By UniProt entry, the sequences of proteins in these tests, tags left out. Residues count along the entry.
UniProt P19490, residues 19-907: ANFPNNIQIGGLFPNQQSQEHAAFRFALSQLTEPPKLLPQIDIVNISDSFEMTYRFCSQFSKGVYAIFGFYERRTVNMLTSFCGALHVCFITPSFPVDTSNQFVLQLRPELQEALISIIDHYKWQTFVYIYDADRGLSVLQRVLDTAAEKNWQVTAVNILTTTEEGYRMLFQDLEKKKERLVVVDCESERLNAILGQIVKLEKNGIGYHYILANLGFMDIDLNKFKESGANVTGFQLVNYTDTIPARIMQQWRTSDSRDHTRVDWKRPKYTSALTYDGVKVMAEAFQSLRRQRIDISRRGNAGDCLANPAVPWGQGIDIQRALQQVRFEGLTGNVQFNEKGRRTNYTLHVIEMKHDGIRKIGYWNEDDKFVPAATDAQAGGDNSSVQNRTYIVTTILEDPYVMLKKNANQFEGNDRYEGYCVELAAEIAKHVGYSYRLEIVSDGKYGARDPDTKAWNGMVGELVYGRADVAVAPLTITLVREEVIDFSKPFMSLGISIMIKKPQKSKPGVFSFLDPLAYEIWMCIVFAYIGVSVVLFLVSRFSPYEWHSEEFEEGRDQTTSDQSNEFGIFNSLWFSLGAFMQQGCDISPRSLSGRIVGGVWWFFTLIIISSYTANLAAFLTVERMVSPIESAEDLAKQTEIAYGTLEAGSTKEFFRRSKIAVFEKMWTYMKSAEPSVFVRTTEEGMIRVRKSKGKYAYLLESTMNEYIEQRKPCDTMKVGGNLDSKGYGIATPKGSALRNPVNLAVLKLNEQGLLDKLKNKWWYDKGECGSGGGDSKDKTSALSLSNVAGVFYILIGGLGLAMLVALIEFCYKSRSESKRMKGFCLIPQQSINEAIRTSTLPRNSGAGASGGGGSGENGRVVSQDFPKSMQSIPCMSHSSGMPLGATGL
UniProt P19491, residues 22-883: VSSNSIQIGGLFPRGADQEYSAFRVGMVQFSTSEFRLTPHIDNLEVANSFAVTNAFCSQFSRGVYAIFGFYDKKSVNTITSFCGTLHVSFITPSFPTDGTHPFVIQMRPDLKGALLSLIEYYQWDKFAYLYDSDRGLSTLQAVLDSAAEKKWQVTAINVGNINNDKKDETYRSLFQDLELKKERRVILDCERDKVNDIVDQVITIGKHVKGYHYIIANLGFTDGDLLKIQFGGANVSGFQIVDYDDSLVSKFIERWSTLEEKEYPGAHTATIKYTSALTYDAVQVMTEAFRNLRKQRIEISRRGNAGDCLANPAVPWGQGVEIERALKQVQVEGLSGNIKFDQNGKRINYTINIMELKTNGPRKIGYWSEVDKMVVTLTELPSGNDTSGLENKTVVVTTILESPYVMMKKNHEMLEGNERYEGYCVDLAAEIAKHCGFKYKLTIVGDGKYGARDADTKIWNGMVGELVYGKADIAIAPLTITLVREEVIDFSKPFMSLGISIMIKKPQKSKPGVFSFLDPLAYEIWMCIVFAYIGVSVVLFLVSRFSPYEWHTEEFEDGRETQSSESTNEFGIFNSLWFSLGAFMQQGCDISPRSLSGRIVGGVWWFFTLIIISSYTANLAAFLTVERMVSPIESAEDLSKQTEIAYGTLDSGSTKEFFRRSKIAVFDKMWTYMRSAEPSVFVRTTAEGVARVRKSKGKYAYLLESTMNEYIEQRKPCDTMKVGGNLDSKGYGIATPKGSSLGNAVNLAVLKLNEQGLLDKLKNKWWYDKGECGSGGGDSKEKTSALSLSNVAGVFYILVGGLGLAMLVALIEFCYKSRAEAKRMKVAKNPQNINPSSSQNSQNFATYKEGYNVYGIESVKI

Experiments:
Assay in all cases: pull-down; GST fusion proteins immobilized on glutathione-Sepharose 4B beads, incubated overnight at 4°C with lysates of transfected HEK293 cells (PBS, 1% Triton X-100, 1 mM EDTA, pH 7.4); western blot; only the target purified
[1] = biological target: T1, GST Rho-GAP (Myo9a amino acids 2135-2338 fused to GST) (rat) (UniProt Q9Z1N3)
T1 sequence: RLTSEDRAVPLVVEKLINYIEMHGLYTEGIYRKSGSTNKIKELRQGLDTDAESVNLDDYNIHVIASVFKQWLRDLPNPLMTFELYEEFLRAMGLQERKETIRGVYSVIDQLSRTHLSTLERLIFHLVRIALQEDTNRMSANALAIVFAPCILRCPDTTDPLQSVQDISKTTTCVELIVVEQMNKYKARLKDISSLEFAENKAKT

[2] = biological target: T2, GST N-terminal (Myo9a amino acids 2-130 fused to GST) (rat) (UniProt Q9Z1N3)
T2 sequence: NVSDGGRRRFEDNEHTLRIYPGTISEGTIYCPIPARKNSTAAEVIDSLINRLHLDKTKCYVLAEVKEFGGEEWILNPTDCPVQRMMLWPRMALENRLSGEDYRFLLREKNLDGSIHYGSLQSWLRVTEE

[3] = biological target: T3, GST C-terminal (Myo9a amino acids 2330-2626 fused to GST) (rat) (UniProt Q9Z1N3)
T3 sequence: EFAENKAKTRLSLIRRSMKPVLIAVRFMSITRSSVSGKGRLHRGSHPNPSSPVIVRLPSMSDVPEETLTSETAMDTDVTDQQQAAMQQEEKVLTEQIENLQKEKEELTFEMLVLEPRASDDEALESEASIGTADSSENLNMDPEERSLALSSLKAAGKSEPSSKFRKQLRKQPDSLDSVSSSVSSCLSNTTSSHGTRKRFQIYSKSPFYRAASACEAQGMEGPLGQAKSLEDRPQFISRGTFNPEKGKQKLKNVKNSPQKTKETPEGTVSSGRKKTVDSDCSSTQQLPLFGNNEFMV

Substance	binding [1]	binding [2]	binding [3]
GluA1 (rat) expressed in HEK293 cells (from UniProt P19490 19-907) (receptor)	no binding	no binding	no binding
GluA2 (rat) expressed in HEK293 cells (from UniProt P19491 22-883) (receptor)	no binding	no binding	binds
